Reference: patent US20240392013A1, “IL1RAP ANTIBODIES AND USES THEREOF” (STELEXIS THERAPEUTICS, LLC, priority 2021, published 2024)

T1: hIL1RAP (Homo sapiens, UniProt Q9NPH3)
T1 sequence (Q9NPH3 21-367 limits assumed): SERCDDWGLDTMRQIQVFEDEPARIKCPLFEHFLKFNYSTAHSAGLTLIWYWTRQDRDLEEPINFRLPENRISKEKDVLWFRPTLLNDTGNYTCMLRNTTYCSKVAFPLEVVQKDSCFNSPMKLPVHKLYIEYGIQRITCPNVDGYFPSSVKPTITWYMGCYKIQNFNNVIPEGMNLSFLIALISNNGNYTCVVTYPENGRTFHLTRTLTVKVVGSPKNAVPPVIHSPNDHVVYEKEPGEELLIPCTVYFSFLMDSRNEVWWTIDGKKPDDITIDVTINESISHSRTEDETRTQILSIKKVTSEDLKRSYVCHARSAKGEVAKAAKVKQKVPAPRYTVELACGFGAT


How the values were obtained:
cyIL1RAP = assay: Kinetics of IL1RAP mAbs by Octet, cynomolgus IL1RAP; type: binding
Method: (§1) Antibodies were diluted in kinetics buffer (0.1% BSA, 0.02% Tween-20 and 0.05% NaN3 in PBS) and loaded onto 16 channel anti-mouse IgG Fc capture sensors (AMC, Cat #2001073; Sartorius, Göttingen, Germany). Human, huIL1RAP-His (Sino Biological, lot: MB08MA1301), and monkey, cyIL1RAP-His (Lake Pharma, NY, USA; lot:16205819371) proteins were titrated starting from the highest concentration of 100 nM and followed by 50 nM and 25 nM. Purified antibodies were loaded at 5 μg/ml in kinetics buffer. The experimental parameters selected to determine the kinetic constants were Baseline for 60 s, Loading of antibody to sensor for 180 s, Association of analyte to antibody for 120 s, Dissociation for 1200 s and Regeneration in 10 mM Glycine pH 1.7 for 4×30 s.
(§2) Regeneration cycle tracking was selected for 12 cycles. Binding to human and cynomolgus IL1RAP was measured and KD (M) kinetics were calculated. Also, the disassociation rate (Kdis) (1/s) and association rate (Kon) (1/Ms) kinetics were calculated (data not shown).

[1] = test system: IL33-induced NFκB activity; assay: HEK-BlueIL33 NFκB Reporter Assay; type: cell-based, human; settings: nM range, read-out: IC50, inhibition of IL33-induced NFκB activity
Text: HEK-Blue IL33 (Invivogen, Cat #hkb-hil33) cell line was used to monitor NFκB activity upon stimulation with IL33 cytokine. The secreted embryonic alkaline phosphatase reporter gene (SEAP) is inducible expressed under the control of IFN-β minimal promoter fused to NFκB/AP-1. HEK-BlueIL33 cells were also generated upon stable transfection with human IL1RL1 (ST2) gene. Specificity to IL33 cytokine was achieved by blockage of TNF-α and IL1 response. Cells are maintained in the presence of hygromycin (200 μg/ml), zeocin (100 μg/ml) and blasticidin (10 μg/ml).
(§3) For the functional assay, cells were plated at a density of 5×10^4 cells/well in 96-well plates. Cells were treated with each antibody at the highest concentration of 200 μg/ml followed by seven serial 1:3 dilutions and incubated for 45 minutes at 37° C./5% CO^2 in humified incubator. Cells were then stimulated with IL33 (12 μM) and incubated overnight at 37° C./5% CO2 in humified incubator. Every treatment was conducted in triplicates. Following, supernatants from each well were mixed with Quanti-Blue substrate (Invivogen, Cat #rep-qb1) according to manufacturer's recommendations and secreted SEAP was measured using spectrophotometer at 650 nm.

[2] = test system: IL1-induced NFκB activity; assay: HEK-BlueIL1β NFκB Reporter Assay; type: cell-based; settings: nM range, read-out: IC50, inhibition of IL1-induced NFκB activity
Method: The HEK-Blue IL1β (Invivogen, Cat #hkb-il1b) cell line was used to monitor NFκB activity upon stimulation with IL1β cytokine. In this cell line the secreted embryonic alkaline phosphatase reporter gene (SEAP) is inducibly expressed under the control of IFN-β minimal promoter fused to NFκB/AP-1. Specificity to IL1β cytokine was achieved by blockage of TNF-α response. The cells were maintained in the presence of hygromycin (200 μg/ml) and zeocin (100 μg/ml).
as §3, with “CO2” for “CO^2”, “IL1β” for “IL33”, “(Invivogen, CA USA;” for “(Invivogen,”

hIL1RAP = molecular target: T1, hIL1RAP; assay: Kinetics of IL1RAP mAbs by Octet, human IL1RAP; type: binding; set-up: extracellular domain His-tagged, Cat #10121-H08H; His; purchased Sino Biological lot MB08MA1301 (catalogue number not given)
Method: as §1, §2

Row | Molecule | cyIL1RAP kdis(1/s) (cyIL1RAP) | cyIL1RAP kon(1/Ms) (cyIL1RAP) | IC50 [1] | IC50 [2] | hIL1RAP kdis(1/s) (hIL1RAP) | hIL1RAP kon(1/Ms) (hIL1RAP)
1 | 74804_01N02A: anti-IL1RAP mAb; VH SEQ ID NO:16, VL SEQ ID NO:18, κ light chain (antibody, V domains shown, 74804_01N02A VH; 74804_01E23A VL and 74804_01N02A VL) VH: EVQLVQSGAEVKKPGESLKISCKGSGYSFTSYWIVWVRQMPGKGLEWMGFIYPGNSDTRYSPSFQGQVTISADQSISTAYLQWSSLKASDTATYYCARGGSYYLDYWGQGTLVTVSS VL: DIVMTQSPDSLAVSLGERATIYCKSSQSVLINSNNQNYLAWYQQKPGQPPKLLIQWASTRESGVPDRFSGSGSGTDFTLTISSLQAEDVAVYYCQQYYNSPFTFGGGTKVEIK | 0.000413 s⁻¹ | 334300 M⁻¹ s⁻¹ | 17 nM | 1.72 nM | 0.000233 s⁻¹ | 289800 M⁻¹ s⁻¹
2 | 74804_01E23A: anti-IL1RAP mAb; VH SEQ ID NO:1, VL SEQ ID NO:18, κ light chain (antibody, V domains shown, 74804_01E23A VH; 74804_01E23A VL and 74804_01N02A VL) VH: QVQLVQSGAEVKKPGASVKVSCKASGYTFTGYYMHWVRQAPGQGLEWMGWLNPNSGGTDYVQKFQGRVTMTRDTSISTAYMELSRLRSDDTAVYYCARTLYYYGMDVWGQGTTVTVSS VL: DIVMTQSPDSLAVSLGERATIYCKSSQSVLINSNNQNYLAWYQQKPGQPPKLLIQWASTRESGVPDRFSGSGSGTDFTLTISSLQAEDVAVYYCQQYYNSPFTFGGGTKVEIK | 0.000863 s⁻¹ | 190100 M⁻¹ s⁻¹ | 2.49 nM | 0.737 nM | 0.000391 s⁻¹ | 167100 M⁻¹ s⁻¹
3 | 74804_21D11A: anti-IL1RAP mAb; VH SEQ ID NO:12, VL SEQ ID NO:28, λ light chain (antibody, V domains shown, 74804_21D11A VH; 74804_21D11A VL) VH: EVQVVESGGGLVKPGGSLRLSCAASGFIFSKAWMSWVRQAPGKGLEWVGRIKSKTDGGTTDYAAPVKGRFTISRDDSKNTLYLQMNSLKTEDTAVYYCTTGGYVFDYWGQGALVTVSS VL: QSVLTQPPSASGTPGQRVTISCSGNNSNIGSYIVNWFQQLPGTAPKLLIYSKNQRPSGVPDRFSGSKSGTSASLAISGLQSEDEADYYCAAWDDSLNGVVFGGGTKLTVL | 0.002591 s⁻¹ | 254500 M⁻¹ s⁻¹ | 3.54 nM | 0.532 nM | 0.000478 s⁻¹ | 218200 M⁻¹ s⁻¹
4 | 74804_44J14A: anti-IL1RAP mAb; VH SEQ ID NO:15, VL SEQ ID NO:31, λ light chain (antibody, V domains shown, 74804_44J14A VH; 74804_44J14A VL) VH: QVQLQESGPGLVKPSETLSLTCTVSGGSVFSYFWNWIRQPPVKGLEWIGYIDHSGGTNYNPSLKSRVTMSVDTSKNQFSLKLSSVTAADTAVYYCAREGLHDAFDIWGQGTLVTVSS VL: QSVLTQPPSASGTPGQRVTISCSGSSSNIGSNTVNWYQLLPGTAPKLLIYSNYQRPSGVPDRFSGSKSGTSASLAISGLQSEDEADYYCAAWDDSLNGRVFGGGTKLTVL | 0.002061 s⁻¹ | 1226000 M⁻¹ s⁻¹ | 8.12 nM | 0.792 nM | 0.000684 s⁻¹ | 558300 M⁻¹ s⁻¹
